Hit rate of the full screen: of about 310,000 compounds, about 2,200 (0.71%) showed an effect of 50% or more. Effects have a minus sign here. The list shows a part of the results.
Target: human ether-à-go-go-related gene (hERG) potassium channel (human, UniProt Q12809)
Assay: primary screen, population patch clamp on CHO cells stably expressing hERG

Chain of human ether-à-go-go-related gene (hERG) potassium channel (Q12809 whole entry, looked up): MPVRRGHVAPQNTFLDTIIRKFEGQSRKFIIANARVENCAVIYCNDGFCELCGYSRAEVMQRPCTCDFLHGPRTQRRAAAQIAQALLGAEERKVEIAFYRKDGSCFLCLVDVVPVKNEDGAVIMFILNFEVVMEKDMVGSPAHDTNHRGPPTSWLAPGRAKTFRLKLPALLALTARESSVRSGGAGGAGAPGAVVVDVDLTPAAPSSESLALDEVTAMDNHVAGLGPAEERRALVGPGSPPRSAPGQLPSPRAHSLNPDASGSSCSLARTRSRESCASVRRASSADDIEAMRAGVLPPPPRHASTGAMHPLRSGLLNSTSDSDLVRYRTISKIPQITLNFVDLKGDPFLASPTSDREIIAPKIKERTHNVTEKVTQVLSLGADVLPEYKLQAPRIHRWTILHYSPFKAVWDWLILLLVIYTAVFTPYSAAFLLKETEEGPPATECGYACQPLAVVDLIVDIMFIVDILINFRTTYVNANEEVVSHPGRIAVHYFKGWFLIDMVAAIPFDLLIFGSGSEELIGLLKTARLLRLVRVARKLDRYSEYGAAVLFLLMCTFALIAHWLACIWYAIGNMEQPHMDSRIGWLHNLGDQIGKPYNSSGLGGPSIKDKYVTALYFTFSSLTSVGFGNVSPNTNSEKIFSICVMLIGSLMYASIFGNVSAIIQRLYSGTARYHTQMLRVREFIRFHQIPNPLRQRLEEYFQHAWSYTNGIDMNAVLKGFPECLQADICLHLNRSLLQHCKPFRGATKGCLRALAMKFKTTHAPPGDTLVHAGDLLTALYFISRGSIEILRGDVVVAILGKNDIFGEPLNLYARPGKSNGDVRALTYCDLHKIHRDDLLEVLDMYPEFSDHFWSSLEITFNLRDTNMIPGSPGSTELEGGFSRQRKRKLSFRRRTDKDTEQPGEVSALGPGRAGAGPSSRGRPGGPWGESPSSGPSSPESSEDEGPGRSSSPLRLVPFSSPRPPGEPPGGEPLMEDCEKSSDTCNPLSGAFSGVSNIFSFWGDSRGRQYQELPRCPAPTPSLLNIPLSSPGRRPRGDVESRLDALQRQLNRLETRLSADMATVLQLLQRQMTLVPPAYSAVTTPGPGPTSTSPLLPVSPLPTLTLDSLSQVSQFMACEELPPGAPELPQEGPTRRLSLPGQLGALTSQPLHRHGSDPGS

SMILES	hERG current change (%, negative = inhibition) at 1uM
CC(=O)N1C(c2ccccc2)CC(=O)OC1c1ccc2c(c1)OCO2 (stereo not shown)	9.84%
O=C(/C=C/c1ccc(Cl)cc1)N1CCN(c2ccccc2[N+](=O)[O-])CC1	-33.6%
CC(=O)c1ccc(OCc2cc(C(=O)N(C)Cc3nc4c(C)cccc4[nH]3)no2)cc1	4.57%
O=C(CNCCCO)Nc1cc(C(F)(F)F)cc(NC(=O)CNCCCO)c1Cl	9.02%
CCC(CC)c1nnc(NC(=O)c2cccnc2SC)s1	9.37%
C=CCN1C(=O)/C(=c2\sc3nc(=O)c(Cc4ccccc4)nn3c2=O)c2ccccc21	11.5%
N#C/C(=C(/O)c1ccc2c(c1)OCO2)c1nc2cc(C(F)(F)F)ccc2s1	7.79%
CC(C)(C)NC(=O)C(c1ccccn1)N(C(=O)C1CSC(=O)C1)c1ccccc1F (stereo not shown)	3.73%
Cc1ccc(-n2nnc3c(=O)n(Cc4cc(C)ccc4C)cnc32)cc1	11.1%
O=C(c1ccccc1NS(=O)(=O)c1ccc(Br)cc1)N1CCOCC1	2.86%
CCc1nc(SCC(=O)Nc2ccccc2OC)c2c(C)c(C)sc2n1	12.6%
Cc1ccc(NC(=O)COc2coc(CN3CCc4ccccc43)cc2=O)cc1Cl	16%
CC1CCC2C(=O)N(c3ccccc3OC(=O)c3ccccc3F)C(=O)C2C1 (stereo not shown)	11%
O=c1cc(N2CCCCC2)nc2n1CCCS2	13.8%
CN1CCc2c(sc3c2C(=O)NC(c2ccc(-c4ccc(Cl)cc4)o2)N3)C1 (stereo not shown)	9.32%
CCCCn1c(SCC(=O)c2ccc(O)cc2O)nc2cc(S(N)(=O)=O)ccc21	-11.7%
CCOC(=O)N1CCN(C(=O)/C(=C/c2ccc(OC)cc2)NC(=O)c2ccccc2)CC1	-27.1%
Cc1ccc(C(=O)OCC(=O)NC(=O)c2ccccc2)o1	9.2%
Cc1ccc(NC(=O)Cn2cccc2C2=NC(c3ccccc3)CO2)c(C)c1 (stereo not shown)	3.9%
CCCCNc1ccc(C(CC(N)=O)NC(=O)c2ccccc2)cc1[N+](=O)[O-] (stereo not shown)	1.7%
CC(C)C(NC(=O)c1ccccc1)C(=O)OCC(=O)N1CCN(c2ccccc2)CC1 (stereo not shown)	0.354%
O=C(Oc1ccc(NC(=O)c2cc3c(cc2Br)OCO3)cc1)c1ccccc1	12.4%

SMILES	hERG current change (%, negative = inhibition) at 1uM
CCCCCCOc1ccc(N2C(=O)CC(N3CCN(CCN=CC4C(=O)CC(C)(C)CC4=O)CC3)C2=O)cc1 (stereo not shown)	6.82%
C/C(N)=C(/C#N)C(=O)COC(=O)C(c1ccccc1)c1ccccc1	12.5%
Cc1cccc(NC(=O)Nc2ccccc2)n1	5.39%
COc1ccc2nc(SC)cc(C)c2c1	15.4%
COc1ccc(OCCNC(=O)c2cc(C3CC3)nc3c2cnn3C(C)C)cc1	8.52%
CSc1nnc2c(n1)c(C)nn2-c1ccc(C)cc1	-0.748%
COc1ccc(-c2[nH]ncc2/C=N/NC(=O)c2cc(Br)ccc2O)c(OC)c1	20.9%
CC(C)COC(=O)C(C#N)c1nc2ccccc2nc1N1CCN(Cc2ccccc2)CC1 (stereo not shown)	7.15%
CC1(C)CC(=O)CC(C2(O)C(=O)N(Cc3ccccc3)c3ccccc32)O1 (stereo not shown)	10%
CCN(CC)S(=O)(=O)c1ccc2[nH]c(=O)cc(C(=O)NCC(c3ccco3)N3CCCC3)c2c1 (stereo not shown)	5.57%
CC1=Nc2ccc(C)cc2/C1=C/c1c(N)n2oc(C)cc2nc1=O	13.8%
CC(C)C[C@H](NC(=O)Nc1cccc(Br)c1)C(=O)O	14.1%
COc1ccc(CCC(=O)Nc2ccc(S(=O)(=O)Nc3nccc(C)n3)cc2)cc1	24.4%
NC(=O)c1ccc(NC(=O)COC(=O)CCc2ccc(S(=O)(=O)N3CCCCC3)cc2)cc1	8.41%
Cc1nn(Cc2c(F)c(F)c(F)c(F)c2F)c(C)c1NC(=O)c1ccc(COc2ccc(Cl)cc2Cl)o1	18.8%
COc1ccccc1C(OC(=O)c1ccco1)C(=O)NC(C)(C)C (stereo not shown)	12.8%
S=C(Nc1nc2c(s1)CCCC2)NC1CC1	9.28%
NS(=O)(=O)c1ccc(NC(=S)N2CCN(c3ccc(Cl)c(Cl)c3)CC2)cc1	14.8%
CC(=O)Nc1ccc(-c2nc3cc(Cl)ccc3o2)cc1	16.4%
CCN1C(=O)[C@H]2[C@@H](c3ccc(-c4ccccc4)cc3)N[C@@](C)(C(=O)OC)[C@H]2C1=O.O=C(O)C(F)(F)F	11.4%
Cc1cccc2c(CC(=O)Nc3ccccc3)noc12	3.24%
Cc1nn(CC(=O)NCc2ccc(-n3cccn3)cc2)c(C)c1[N+](=O)[O-]	6.37%

SMILES	hERG current change (%, negative = inhibition) at 1uM
CN1CC(=O)N=C1N	7.78%
CCS(=O)(=O)N1Cc2ccccc2CC1C(=O)NCC12CC3CC(CC(C3)C1)C2 (stereo not shown)	0.461%
Cc1cccc(NC(=O)CCN2CCOCC2)c1	12.5%
COc1ccccc1C(=O)Nc1nc2ccccc2s1	21%
O=C(CN1CCCCCC1)Nc1ccccc1F.O=C(O)C(=O)O	14%
COc1ccc(N2C(=O)C(OC(C)=O)C2c2ccc(C)cc2)cc1 (stereo not shown)	7.38%
CC(=NC1CC1)c1c(-c2ccccc2)[nH]n(-c2nc3ccccc3s2)c1=O	8.29%
CC(=O)Nc1cccc(NC(=O)CSc2nc(=O)n(CCN3CCOCC3)c3c2CCC3)c1	5.13%
CCN1CCN(c2ccc(NC(=O)COc3ccccc3Cl)cc2)CC1	-6.66%
COc1ccc(-c2noc(CN3CCCCC3c3nccn3C)n2)cc1 (stereo not shown)	1.84%
CC(C)N(C)S(=O)(=O)c1ccc(Cl)c(C(=O)O)c1	6.85%
CCc1ccc2oc(-c3cc(N=Cc4cccc(OC)c4O)ccc3O)nc2c1	19.3%
CC(C)NCc1nnc(-c2ccc(Cl)cc2)o1	13.9%
Cc1cc(/C=N/NC(=O)CC#N)c(C)n1-c1ccc([N+](=O)[O-])cc1	0.927%
CC(CC(=O)Nc1ccncc1)c1ccccc1 (stereo not shown)	5.15%
CC(=O)c1cccc(NS(=O)(=O)c2cc3c(cc2C)N(C(C)=O)CCO3)c1	14.5%
N#CC(c1ccccn1)c1ncc(C(F)(F)F)cc1Cl (stereo not shown)	16.6%
Cc1ncsc1CCSc1nc2ccccc2c(=O)n1C	-0.588%
CCOC(=O)c1sc(C)c2c1NC(c1ccc(Cl)cc1)NC2=O (stereo not shown)	-4.42%
COc1ccc(S(=O)(=O)N2CCCC(C(=O)N3CCCC3)C2)cc1OC (stereo not shown)	10.1%
Cn1c(=O)[nH]c2ncccc21	9.74%
C=C(C)n1c(=O)n(Cc2ccc(C)cc2)c2ccccc21	11.3%

SMILES	hERG current change (%, negative = inhibition) at 1uM
CCc1cc2c3c(c(=O)oc2cc1OC)CCCC3	6.21%
O=C(O)/C=C\c1ccccc1Oc1ccc(F)cc1	18.7%
Cc1ccc(-n2nnc3ccccc3c2=O)cc1C	6.54%
Cc1ccccc1C(=O)N1CCC(C(=O)Nc2sccc2C(N)=O)CC1	0.801%
COc1cccc(-c2nc(-c3ccccn3)no2)c1	9.1%
COc1cccc(/C=C2/Sc3ccc(C(=O)NCCN4CCCC4)cc3NC2=O)c1	-6.49%
CCc1ccc(C(=O)NNC(=O)CC2OC(=O)c3ccccc32)cc1 (stereo not shown)	6.44%
Cc1ccc2[nH]c(=O)c(CN(CCc3ccccc3)Cc3nnnn3CC3CCCO3)cc2c1 (stereo not shown)	7.26%
Cc1ccc(-n2c(C)c(C)c3c(NCCCO)ncnc32)cc1	6.21%
CCN(CC(=O)NCc1ccc(F)cc1)C(=O)c1oc2ccccc2c1C	-0.0994%
CCOC(=O)c1c[nH]c2c3c(ccc2c1=O)CCCC3	11%
COC(=O)[C@@H](NC(=O)c1ccc2c(c1)S(=O)(=O)c1ccccc1C2=O)C(C)C	19.3%
COCc1ccc(CN2CCCCC2C(=O)Nc2ccc(Oc3ccccc3)nc2)o1 (stereo not shown)	10.6%
CCN(CC(=O)NC(C)C)C(=O)c1ccc(Cl)cc1	7.7%
CC(C)c1ccc(NC(=O)COc2ccc(S(=O)(=O)N3CCOCC3)cc2)cc1	5.72%
O=C(Nc1nnc(-c2ccccc2)s1)c1ccccc1F	13.3%
CCc1cc(=O)oc2c(CN3CCN(C)CC3)c(O)ccc12	13%
CC1=Nc2cc(C(=O)N3CCCCC3)ccc2Sc2ccc(C)cc21	-23%
COc1ccc(S(=O)(=O)N2CCCCC2)cc1NC(=O)c1ccc(Cl)nc1	4.95%
Cc1ccc(/C=C/C(=O)Oc2ccc(C#N)cc2)o1	11.9%
N#Cc1nc(-c2ccccc2)oc1NCc1ccco1	8.76%
CCCCCc1cc(=O)oc2c(C(CCN(CC)CC)c3ccc(OC)cc3)c(OC)cc(OC)c12 (stereo not shown)	4.29%
